Test results reported in ChEMBL document CHEMBL4888484, “Replenishing the malaria drug discovery pipeline: Screening and hit evaluation of the MMV Hit Generation Library 1 (HGL1) against asexual blood stage Plasmodium falciparum ,using a nano luciferase reporter read-out” (2022).
The whole screen tested about 150,000 compounds, of which about 540 (0.36%) showed an effect of 50% or more. Some of the results follow.

These molecules were tested on Plasmodium falciparum (assay: Primary screen in NF54 nanoGlo assay, in single point, at 2uM, 72h; a lower Z score goes with more inhibition). Conditions: timepoint 72 hour.
Format: functional, Erythrocyte

Question: Which “% Inhibition” value does the source give for Cc1ccc(C(=O)N2CCCCCCNC(=O)[C@@H]3CCC[C@@H]32)cn1 here?
Answer: -3%

Question: What about the Z score of the same molecule?
Answer: 0.33

Question: For C[C@H]1C(=O)NCCCN1C(=O)c1ccn(-c2cc(F)cc(F)c2)n1, which “% Inhibition” value is on record?
Answer: -10%

Question: And the Z score?
Answer: 1.79

Question: What does the source list for Cc1[nH]ccc1C(=O)N1C[C@@H]2CC[C@H]1CN(C(=O)c1ccccn1)C2?
Answer: % Inhibition: -13%; Z score: 2.16

Question: Which “% Inhibition” value does the source give for O=C(N[C@H]1CCOC2(CCCC2)C1)N(Cc1ccoc1)C1CC1 here?
Answer: -5%

Question: And the Z score?
Answer: 0.78

Question: Which “% Inhibition” value does the source give for CCn1c(CC2CCN(c3ncnc4[nH]ccc34)CC2)nn(C)c1=O here?
Answer: -9%

Question: And the Z score?
Answer: 1.03

Question: What does the source list for Cc1cc(NC(=O)Cc2cccs2)ccc1NC(=O)c1cccs1?
Answer: % Inhibition: -10%; Z score: 1.32

Question: With CCN(C(=O)Cn1cc(-c2ccccc2)c2ncn(CC)c(=O)c21)c1ccccc1 as the molecule, how does the “% Inhibition” value read?
Answer: 78%

Question: What about the Z score of the same molecule?
Answer: -9.77

Question: With Cn1cnc2cc(C(=O)N3CCC(C4CCOCC4)CC3)ccc21 as the molecule, how does the “% Inhibition” value read?
Answer: -4%

Question: And the Z score?
Answer: 0.72

Question: With CCn1cc(C(=O)N2CC[S+]([O-])CC(C)C2)c(C(F)(F)F)n1 (centres undefined) as the molecule, how does the “% Inhibition” value read?
Answer: -19%

Question: What about the Z score of the same molecule?
Answer: 3.65

Question: How did the “% Inhibition” value turn out when COc1cc2cc(NC(C)=N)nc(C)c2cc1OC was run?
Answer: 15%

Question: What about the Z score of the same molecule?
Answer: -1.95

Question: Which results are given for O=C(N[C@H]1CN[C@H](C(=O)NCCNc2ccccc2)C1)c1ccc(F)c(F)c1?
Answer: % Inhibition: -9%; Z score: 1.6

Question: Which “% Inhibition” value does the source give for Cc1cccc(C(=O)Nc2cc(C)ccc2N2CCCN(Cc3ccccc3)C2=O)c1 here?
Answer: -11%

Question: And the Z score?
Answer: 1.38

Question: Which “% Inhibition” value does the source give for O=C(COC(=O)C1CCC1)Nc1cccc(S(=O)(=O)N2CCOCC2)c1 here?
Answer: -16%

Question: What about the Z score of the same molecule?
Answer: 3.07

Question: Which results are given for Cc1noc(C2CN(C(=O)c3c[nH]c4ccccc34)C2)n1?
Answer: % Inhibition: 2%; Z score: -0.38

Question: Which “% Inhibition” value does the source give for Cc1ccc(S(=O)(=O)N2CCC(C(=O)OCCOc3cccc(C)c3)CC2)cc1 here?
Answer: 3%

Question: What about the Z score of the same molecule?
Answer: -0.37

Question: What does the source list for O=C(N[C@@H](CCc1ccccc1)C(F)(F)F)c1cc2c(s1)CCOC2?
Answer: % Inhibition: -7%; Z score: 1.31

Question: Which “% Inhibition” value does the source give for CCNC(=O)N1CCC(Cc2ccc(C(=O)NCc3ccncc3)cc2)CC1 here?
Answer: -4%

Question: What about the Z score of the same molecule?
Answer: 0.56

Question: With O=C(C[C@@]1(O)C(=O)N(Cc2cccc(C(F)(F)F)c2)c2ccccc21)c1ccc2c(c1)OCO2 as the molecule, how does the “% Inhibition” value read?
Answer: -4%

Question: And the Z score?
Answer: 0.57

Question: Which results are given for Cc1cc(C)nc(O[C@H]2CC[C@H](NC(=O)C3CCOCC3)CC2)n1?
Answer: % Inhibition: -6%; Z score: 0.65

Question: Which “% Inhibition” value does the source give for Cc1ccc(C(=O)N2CCCN(c3nc4ccccc4c4nnc(-c5ccccc5Cl)n34)CC2)cc1 here?
Answer: 10%

Question: What about the Z score of the same molecule?
Answer: -0.89

Question: Which “% Inhibition” value does the source give for C[C@](O)(CNC(=O)c1nnc(-c2ccco2)o1)C1CC1 here?
Answer: -4%

Question: And the Z score?
Answer: 0.42

Question: For COCCN(C)c1cc(C(N)=O)nc(N(C)CCOC)n1, which “% Inhibition” value is on record?
Answer: 7%

Question: What about the Z score of the same molecule?
Answer: -1.24

Question: Which results are given for CC(C)c1nncn1CCNC(=O)c1ccoc1C(F)(F)F?
Answer: % Inhibition: -5%; Z score: 0.61

Question: C[C@H](OC(=O)CCc1nc2c([nH]1)c(=O)[nH]c(=O)n2C)c1cnc2ccccc2c1 was tested. Which “% Inhibition” value did it give?
Answer: -2%

Question: What about the Z score of the same molecule?
Answer: 0.33

Question: Which “% Inhibition” value does the source give for O=C(C1COc2ccccc2O1)N1CCCC1c1ccncc1 (centres undefined) here?
Answer: -3%

Question: And the Z score?
Answer: 0.48

Question: What does the source list for O=C(NC[C@H]1CCCCO1)c1cnc2ccccn2c1=O?
Answer: % Inhibition: -4%; Z score: 0.88

Question: Which results are given for COCC1(CNC(=O)CN2CCOCC2)CCC1?
Answer: % Inhibition: -11%; Z score: 2.09

Question: What does the source list for CN(C)C[C@@H](CO)NC(=O)c1cc2c(C(F)F)nn(C)c2s1?
Answer: % Inhibition: 2%; Z score: -0.46

Question: Cc1cc(O[C@H]2CCN(C)C2=O)ccc1NC(=O)c1cscn1 was tested. Which “% Inhibition” value did it give?
Answer: -4%

Question: What about the Z score of the same molecule?
Answer: 0.37

Question: Which results are given for CN(CC1(CO)CC1)C(=O)Nc1cccc2[nH]ccc12?
Answer: % Inhibition: 3%; Z score: -0.57

Question: Which “% Inhibition” value does the source give for O=C(CC1CCCC1)NCC1CCN(c2cccnc2)CC1 here?
Answer: 18%

Question: And the Z score?
Answer: -2.28

Question: Cc1ncc2c(c1-c1noc(-c3cc(-c4ccccc4)on3)n1)CCNC2 was tested. Which “% Inhibition” value did it give?
Answer: -14%

Question: What about the Z score of the same molecule?
Answer: 1.65

Question: Which results are given for CCOC(=O)COCCN1CCC[C@H]1c1ncccn1?
Answer: % Inhibition: -6%; Z score: 1.08

Question: O=C1CN(CCn2cncn2)CN1CC1CC1 was tested. Which “% Inhibition” value did it give?
Answer: -13%

Question: What about the Z score of the same molecule?
Answer: 2.39

Question: Which “% Inhibition” value does the source give for COc1ccc(CN[C@H]2[C@H](O)[C@@H](n3cncn3)[C@@H]3OC[C@H]2O3)cc1 here?
Answer: 33%

Question: What about the Z score of the same molecule?
Answer: -3.68

Question: How did the “% Inhibition” value turn out when COc1nn(C)cc1C(=O)NCc1nnc2cc(-c3nc(C)no3)ccn12 was run?
Answer: -19%

Question: What about the Z score of the same molecule?
Answer: 2.49

Question: What does the source list for COCCc1noc(CNC(=O)[C@H]2CCCO2)n1?
Answer: % Inhibition: -12%; Z score: 1.17

Question: With CN(C[C@H]1CCOC1)C(=O)COCc1nc2cc(F)ccc2[nH]1 as the molecule, how does the “% Inhibition” value read?
Answer: -10%

Question: And the Z score?
Answer: 1.88

Question: CCn1nc(C)c([C@H](C)NS(=O)(=O)N2CCC(OC)CC2)c1C was tested. Which “% Inhibition” value did it give?
Answer: -3%

Question: What about the Z score of the same molecule?
Answer: 0.38

Question: How did the “% Inhibition” value turn out when CC(C)c1csc(CN2CCC(CCC(=O)N(C)Cc3ccccc3)CC2)n1 was run?
Answer: -4%

Question: And the Z score?
Answer: 0.51

Question: How did the “% Inhibition” value turn out when COC(=O)c1nc(NC(=O)C[C@@H]2N=C(O)N(Cc3cccc(F)c3)C2=O)sc1C(C)C was run?
Answer: 5%

Question: What about the Z score of the same molecule?
Answer: -0.59

Question: CCC(Oc1ccc2c(c1)C(c1ccc(F)cc1)N(C(=O)C(C)(C)C)CC2)C(=O)N1CCCC1 (centres undefined) was tested. Which “% Inhibition” value did it give?
Answer: 6%

Question: What about the Z score of the same molecule?
Answer: -0.69

Question: For O=C(Nc1ccc2c(c1)OCO2)NC1CCCC(OC(=O)Nc2ccc(F)cc2)C1 (centres undefined), which “% Inhibition” value is on record?
Answer: 0%

Question: What about the Z score of the same molecule?
Answer: -0.03

Question: Which results are given for COc1ccc(-n2nc(C)c(CCC(=O)Nc3ccc(F)cc3)c2Oc2ccccc2)cc1?
Answer: % Inhibition: 4%; Z score: -0.54

Question: For Fc1ccc(CCNC2=NCCCN2)cc1, which “% Inhibition” value is on record?
Answer: 5%

Question: What about the Z score of the same molecule?
Answer: -0.9

Question: With O=C(NCCC1(CO)CCC1)c1ccc(Cl)c2occc12 as the molecule, how does the “% Inhibition” value read?
Answer: -3%

Question: And the Z score?
Answer: 0.43

Question: What does the source list for Cc1sc2ncnc(Nc3ccc4c(c3)OCO4)c2c1C?
Answer: % Inhibition: -3%; Z score: 0.37

Question: Which results are given for CCc1cccc2c1N(S(=O)(=O)c1ccc(S(=O)(=O)N3CCCCC3)cc1)CC2?
Answer: % Inhibition: -14%; Z score: 1.24

Question: Cc1nn(C)c(C)c1C(=O)C(=O)N(C)C(C1CC1)C1CC1 was tested. Which “% Inhibition” value did it give?
Answer: -15%

Question: And the Z score?
Answer: 1.99

Question: For Cc1ccc(CN(CC(C)C)C[C@H](O)COCc2ccccc2)s1, which “% Inhibition” value is on record?
Answer: -8%

Question: And the Z score?
Answer: 1.29

Question: How did the “% Inhibition” value turn out when Cn1cc(C(C(=O)O[C@@H]2C[C@@H]3CC[C@@]2(C)C3(C)C)c2cn(C)c3ccccc23)c2ccccc21 was run?
Answer: 32%

Question: And the Z score?
Answer: -0.29

Question: Cc1cc(CC(=O)NCc2cc(COc3ccccc3)cs2)on1 was tested. Which “% Inhibition” value did it give?
Answer: 2%

Question: And the Z score?
Answer: -0.28
